According to article PMC12820563:
This is one part of the list. The list includes weakly bound sequences.

molecular target: T1, MBP-FoxP3dN (UniProt Q99JB6); assay: PD-seq (MBP pull-down with sequencing); details: 20 mM Tris-HCl pH 7.5, 100 mM NaCl, 1.5 mM MgCl2, 0.4 uM protein, 0.1 uM dsDNA library, 30 min, room temperature, amylose pull-down; high values mean tight binding; double strand, one strand shown
T1 sequence: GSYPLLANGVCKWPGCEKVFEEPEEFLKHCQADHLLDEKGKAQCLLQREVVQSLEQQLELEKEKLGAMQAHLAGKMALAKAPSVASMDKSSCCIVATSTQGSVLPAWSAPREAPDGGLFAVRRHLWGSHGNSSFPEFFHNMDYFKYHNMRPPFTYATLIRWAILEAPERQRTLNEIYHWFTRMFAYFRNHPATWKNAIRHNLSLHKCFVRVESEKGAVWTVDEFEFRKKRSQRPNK

Sequence | binding signal (RPM ratio (pull-down/input))
GATGATTGTTCTCCCAGCTGATGAATTTATAGCATCGAGTAAACAAATTTTCCTAATCTTTCTGTTCAAGCGCCATCTAC | 1.75
GATGATTGTTCTCCCAGCTGATGAATTCCTCGCGTCGAGTAAACAAATTTTCCTAATCTTTCTGTTCAAGCGCCATCTAC | 0.461
GATGATTGTTCTCCCAGCTGATGAATTGCTAGCTTCGAGTAAACAAATTTTCCTAATCTTTCTGTTCAAGCGCCATCTAC | 0.705
GATGATTGTTCTCCCAGCTGATGAATTTCAAAACTCGAGTAAACAAATTTTCCTAATCTTTCTGTTCAAGCGCCATCTAC | 0.241
GATGATTGTTCTCCCAGCTGATGAATTCCCCCAATCGAGTAAACAAATTTTCCTAATCTTTCTGTTCAAGCGCCATCTAC | 0.229
GATGATTGTTCTCCCAGCTGATGAATTTGGATACTCGAGTAAACAAATTTTCCTAATCTTTCTGTTCAAGCGCCATCTAC | 1.85
GATGATTGTTCTCCCAGCTGATGAATTTCTATTCTCGAGTAAACAAATTTTCCTAATCTTTCTGTTCAAGCGCCATCTAC | 0.464
GATGATTGTTCTCCCAGCTGATGAATTCCAAAGCTCGAGTAAACAAATTTTCCTAATCTTTCTGTTCAAGCGCCATCTAC | 0.221
GATGATTGTTCTCCCAGCTGATGAATTTATGTCGTCGAGTAAACAAATTTTCCTAATCTTTCTGTTCAAGCGCCATCTAC | 2.07
GATGATTGTTCTCCCAGCTGATGAATTGTGAGCTTCGAGTAAACAAATTTTCCTAATCTTTCTGTTCAAGCGCCATCTAC | 0.816
GATGATTGTTCTCCCAGCTGATGAATTGGATTCTTCGAGTAAACAAATTTTCCTAATCTTTCTGTTCAAGCGCCATCTAC | 0.472
GATGATTGTTCTCCCAGCTGATGAATTCCTATTCTCGAGTAAACAAATTTTCCTAATCTTTCTGTTCAAGCGCCATCTAC | 0.424
GATGATTGTTCTCCCAGCTGATGAATTTCCCTTCTCGAGTAAACAAATTTTCCTAATCTTTCTGTTCAAGCGCCATCTAC | 0.295
GATGATTGTTCTCCCAGCTGATGAATTACGGTATTCGAGTAAACAAATTTTCCTAATCTTTCTGTTCAAGCGCCATCTAC | 1.04
GATGATTGTTCTCCCAGCTGATGAATTCCGGGAGTCGAGTAAACAAATTTTCCTAATCTTTCTGTTCAAGCGCCATCTAC | 0.233
GATGATTGTTCTCCCAGCTGATGAATTGGTTACCTCGAGTAAACAAATTTTCCTAATCTTTCTGTTCAAGCGCCATCTAC | 0.673

Sequence | binding signal (RPM ratio (pull-down/input))
GATGATTGTTCTCCCAGCTGATGAATTGAACATGTCGAGTAAACAAATTTTCCTAATCTTTCTGTTCAAGCGCCATCTAC | 0.36
GATGATTGTTCTCCCAGCTGATGAATTGTGATGCTCGAGTAAACAAATTTTCCTAATCTTTCTGTTCAAGCGCCATCTAC | 1.96
GATGATTGTTCTCCCAGCTGATGAATTAGGCTTCTCGAGTAAACAAATTTTCCTAATCTTTCTGTTCAAGCGCCATCTAC | 1.69
GATGATTGTTCTCCCAGCTGATGAATTTCTCGACTCGAGTAAACAAATTTTCCTAATCTTTCTGTTCAAGCGCCATCTAC | 0.234
GATGATTGTTCTCCCAGCTGATGAATTCAATGGCTCGAGTAAACAAATTTTCCTAATCTTTCTGTTCAAGCGCCATCTAC | 0.609
GATGATTGTTCTCCCAGCTGATGAATTCACGACCTCGAGTAAACAAATTTTCCTAATCTTTCTGTTCAAGCGCCATCTAC | 0.269
GATGATTGTTCTCCCAGCTGATGAATTTAGGACGTCGAGTAAACAAATTTTCCTAATCTTTCTGTTCAAGCGCCATCTAC | 0.367
GATGATTGTTCTCCCAGCTGATGAATTACTATGTTCGAGTAAACAAATTTTCCTAATCTTTCTGTTCAAGCGCCATCTAC | 0.583
GATGATTGTTCTCCCAGCTGATGAATTGTATCAATCGAGTAAACAAATTTTCCTAATCTTTCTGTTCAAGCGCCATCTAC | 1.23
GATGATTGTTCTCCCAGCTGATGAATTAAGGCCTTCGAGTAAACAAATTTTCCTAATCTTTCTGTTCAAGCGCCATCTAC | 1.53
GATGATTGTTCTCCCAGCTGATGAATTGGCATCTTCGAGTAAACAAATTTTCCTAATCTTTCTGTTCAAGCGCCATCTAC | 4.07
GATGATTGTTCTCCCAGCTGATGAATTATGCGTCTCGAGTAAACAAATTTTCCTAATCTTTCTGTTCAAGCGCCATCTAC | 5.32
GATGATTGTTCTCCCAGCTGATGAATTCATCACTTCGAGTAAACAAATTTTCCTAATCTTTCTGTTCAAGCGCCATCTAC | 1.28
GATGATTGTTCTCCCAGCTGATGAATTCCGCGAATCGAGTAAACAAATTTTCCTAATCTTTCTGTTCAAGCGCCATCTAC | 0.245
GATGATTGTTCTCCCAGCTGATGAATTCCGCCCATCGAGTAAACAAATTTTCCTAATCTTTCTGTTCAAGCGCCATCTAC | 1.79
